This list was built around the results that the source calls inconclusive (neither active nor inactive); the mix of calls is not that of the screen. For some assays here: Potencies of inconclusive entries are left out as doubtful fits. For some assays here: “Side channel” marks fits to a control or component signal instead of the main read-out. The source made the active and inactive calls. Unless noted, calls come from the whole dose curve; as a rule, active = well fitted curve in the direction sought with a large enough effect; inconclusive = small, poorly fitted or top-dose-only effect, or another doubt; inactive = no such curve, though single readings can be large; an effect the other way counts as inactive or inconclusive.
Assays:
[1] = target: Estrogen receptor (Homo sapiens) (UniProt P03372); assay: qHTS assay for small molecule antagonists of estrogen receptor alpha signaling (AID 588513; active = well fitted curve in the direction sought with a large enough effect in the signal ratio, with a control signal flat, not every such curve was filed as active; inconclusive = small, poorly fitted or top-dose-only effect, or effect the other way, or a change in a side signal; inactive = no such curve, though single readings can be large or run the other way; the % refers to the signal ratio; note: % is set by controls: 0 for no effect and ±100 for the full control effect); conditions: ER-alpha-UAS-bla HEK293, beta-lactamase ratio, antagonist mode; activity, negative = inhibition: at 76.9 µM (top of the series) unless noted
Chain of UniProt P03372 (P03372 whole entry, looked up): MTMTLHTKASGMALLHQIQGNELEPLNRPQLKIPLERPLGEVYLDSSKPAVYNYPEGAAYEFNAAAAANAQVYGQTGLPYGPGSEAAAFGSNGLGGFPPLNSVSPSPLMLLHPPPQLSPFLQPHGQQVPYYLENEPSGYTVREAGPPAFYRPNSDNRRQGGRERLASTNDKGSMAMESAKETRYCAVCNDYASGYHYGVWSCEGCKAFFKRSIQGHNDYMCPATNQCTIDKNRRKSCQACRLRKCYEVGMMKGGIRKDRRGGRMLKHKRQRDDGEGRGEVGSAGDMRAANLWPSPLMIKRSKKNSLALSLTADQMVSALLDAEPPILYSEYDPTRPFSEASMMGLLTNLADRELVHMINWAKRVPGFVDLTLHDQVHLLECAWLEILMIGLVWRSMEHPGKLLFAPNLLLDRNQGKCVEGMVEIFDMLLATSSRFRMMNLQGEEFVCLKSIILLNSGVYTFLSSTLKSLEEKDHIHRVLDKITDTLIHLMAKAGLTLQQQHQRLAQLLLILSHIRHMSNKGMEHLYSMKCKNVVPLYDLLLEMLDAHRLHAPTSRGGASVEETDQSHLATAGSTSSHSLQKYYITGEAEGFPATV
How it was run: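 Antagonist mode: inhibition of 0.5 nM 17-beta-estradiol-driven beta-lactamase reporter in HEK 293 ER-alpha-UAS-bla cells, 18 h at 37C, CCF4 readout after 2 h at RT. Normalised to estradiol and DMSO; titration fitted to Hill.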

[2] = target: Estrogen receptor (Homo sapiens) (UniProt P03372); assay: qHTS assay for small molecule agonists of estrogen receptor alpha signaling (AID 588514; calls by dose curve; note: potency is the fitted concentration of half-maximal effect; nearly all actives have a fitted effect of over 70% in size); conditions: ER-alpha-UAS-bla HEK293, beta-lactamase ratio, 18 h; activation: at 76.8 µM (top of the series), percent of full estradiol response, vehicle zero
How it was run: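 ER-alpha-UAS-bla GripTite HEK293 cells, 5000/well in 2% charcoal/dextran-stripped FBS medium, treated with compound titrations 18 h at 37 C. CCF4 beta-lactamase read by fluorescence after 2 h RT; normalised to 20 nM 17-beta-estradiol (100%) and DMSO (0%), Hill fit for EC50 and efficacy.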

[3] = target: Glucocorticoid receptor (Homo sapiens) (UniProt P04150); assay: qHTS assay for small molecule agonists of glucocorticoid receptor signaling (AID 588532; active = well fitted curve in the direction sought with a large enough effect in the signal ratio, with a control signal flat; inconclusive = small, poorly fitted or top-dose-only effect, or a change in a side signal; inactive = no such curve, though single readings can be large or run the other way; the % refers to the signal ratio; note: potency is the fitted concentration of half-maximal effect); conditions: HeLa MMTV-bla, beta-lactamase ratio, agonist, 18 h; activation: stronger effect = higher value, percent of dexamethasone control, DMSO zero
How it was run: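 Titration series, up to 92 uM, applied to GRE-bla HeLa cells for 18 h at 37 C. Detection by CCF4 FRET substrate after 2 h at RT.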

[4] = target: Peroxisome proliferator-activated receptor delta (Homo sapiens) (UniProt Q03181); assay: qHTS assay for small molecule antagonists of peroxisome proliferator-activated receptor delta signaling (AID 588535; active = well fitted inhibition curve with a large enough effect in the signal ratio, with a control signal flat, not every such curve was filed as active; inconclusive = small, poorly fitted or top-dose-only effect, or effect the other way, or a change in a side signal; inactive = no such curve, though single readings can be large or run the other way; the % refers to the signal ratio); conditions: HEK293T PPARd-UAS-bla, beta-lactamase FRET ratio, 18 h; activity change, negative = inhibition: at 76.7 µM (top of the series)
Chain of UniProt Q03181 (Q03181 whole entry, looked up): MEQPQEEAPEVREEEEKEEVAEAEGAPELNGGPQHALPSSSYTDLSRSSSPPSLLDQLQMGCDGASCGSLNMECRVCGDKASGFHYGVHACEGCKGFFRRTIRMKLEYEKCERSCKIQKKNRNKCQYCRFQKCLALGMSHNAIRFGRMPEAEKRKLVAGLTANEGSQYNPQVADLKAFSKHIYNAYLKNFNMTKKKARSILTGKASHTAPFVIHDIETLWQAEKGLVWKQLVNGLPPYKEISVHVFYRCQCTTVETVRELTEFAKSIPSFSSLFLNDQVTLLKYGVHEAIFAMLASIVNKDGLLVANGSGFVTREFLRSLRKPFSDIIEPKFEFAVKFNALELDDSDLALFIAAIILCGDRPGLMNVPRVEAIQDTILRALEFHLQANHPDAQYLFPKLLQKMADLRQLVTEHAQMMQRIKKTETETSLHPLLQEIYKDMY
How it was run: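 Reporter: UAS-bla under PPAR-delta response element, HEK293T host. Medium: 2% charcoal/dextran FBS. Dosing: titration, 18 hrs, 37 C. Detection: CCF4, 2 hrs RT, 405 ex/460 and 530 em.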

[5] = target: Peroxisome proliferator-activated receptor gamma (Homo sapiens) (UniProt P37231); assay: qHTS assay for small molecule antagonists of peroxisome proliferator-activated receptor gamma signaling (AID 588537; active = well fitted inhibition curve with a large enough effect in the signal ratio, with a control signal flat, not every such curve was filed as active; inconclusive = small, poorly fitted or top-dose-only effect, or effect the other way, or a change in a side signal; the % refers to the signal ratio;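 note: reporter cells co-stimulated with 50 nM rosiglitazone agonist during compound treatment; % of control where 0% means no effect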); conditions: HEK293 PPARg-UAS-bla, beta-lactamase ratio, antagonist mode; activity, negative = inhibition: at 76.8 µM (top of the series)
How it was run: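 We seeded GeneBLAzer HEK293 reporter cells at 3000 per well, allowed 6-6.5 h attachment at 37 C, then co-treated with test compound titrations and 50 nM rosiglitazone overnight (16 h). Inhibition was quantified from 460/530 nm emission ratios.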

[6] = target: Retinoic acid receptor RXR-alpha (Homo sapiens) (UniProt P19793); assay: qHTS assay for small molecule agonists of retinoid X receptor alpha signaling (AID 588544; calls by dose curve;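 note: 0% = DMSO basal wells and 100% = reference agonist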); conditions: HEK293T RXRa-UAS-bla, beta-lactamase reporter, 18 h; activation: at 76.7 µM (top of the series)
Chain of UniProt P19793 (P19793 whole entry, looked up): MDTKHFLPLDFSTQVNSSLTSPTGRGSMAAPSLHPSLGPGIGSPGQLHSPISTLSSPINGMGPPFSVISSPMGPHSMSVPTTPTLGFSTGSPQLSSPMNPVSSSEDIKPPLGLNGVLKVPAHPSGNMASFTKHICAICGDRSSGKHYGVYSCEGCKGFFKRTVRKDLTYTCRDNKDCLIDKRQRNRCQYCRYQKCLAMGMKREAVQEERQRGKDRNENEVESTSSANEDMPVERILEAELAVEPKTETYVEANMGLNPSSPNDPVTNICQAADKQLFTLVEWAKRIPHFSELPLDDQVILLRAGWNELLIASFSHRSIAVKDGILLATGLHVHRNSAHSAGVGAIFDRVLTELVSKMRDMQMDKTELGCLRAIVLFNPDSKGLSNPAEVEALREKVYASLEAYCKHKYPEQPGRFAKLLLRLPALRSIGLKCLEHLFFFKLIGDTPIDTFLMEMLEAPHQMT

[7] = target: Thyroid hormone receptor beta (Homo sapiens) (UniProt P10828); assay: qHTS assay for small molecule antagonists of thyroid hormone receptor beta signaling (AID 588547; active = well fitted inhibition curve with a large enough effect in the signal ratio, with a control signal flat, not every such curve was filed as active; inconclusive = small, poorly fitted or top-dose-only effect, or effect the other way, or a change in a side signal; the % refers to the signal ratio;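 note: cells stimulated with 0.4 nM T3 agonist during compound exposure; % is set by controls: 0 for no effect and ±100 for the full control effect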); conditions: TR-UAS-bla HEK293, beta-lactamase ratio, antagonist mode, 18 h
Chain of UniProt P10828 (P10828 whole entry, looked up): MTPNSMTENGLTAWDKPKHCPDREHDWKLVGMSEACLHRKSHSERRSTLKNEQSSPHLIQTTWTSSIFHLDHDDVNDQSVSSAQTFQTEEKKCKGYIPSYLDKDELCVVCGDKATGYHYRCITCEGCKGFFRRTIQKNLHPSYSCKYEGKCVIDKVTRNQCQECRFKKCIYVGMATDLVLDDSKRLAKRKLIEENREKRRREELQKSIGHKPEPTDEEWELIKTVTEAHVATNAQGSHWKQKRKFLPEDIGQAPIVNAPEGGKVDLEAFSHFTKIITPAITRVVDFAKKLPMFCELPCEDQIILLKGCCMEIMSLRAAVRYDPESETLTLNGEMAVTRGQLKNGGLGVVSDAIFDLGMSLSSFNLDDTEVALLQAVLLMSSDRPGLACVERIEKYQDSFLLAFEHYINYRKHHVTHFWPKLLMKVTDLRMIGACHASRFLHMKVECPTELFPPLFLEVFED
How it was run: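 TR-UAS-bla GripTite HEK293 cells in 2% charcoal/dextran FBS medium were preincubated 4 h at 37 C, given compound (0.59 nM to 92 uM) plus 0.4 nM T3 (final) for 18 h, then CCF4 for 2 h at RT; Hill fit gave IC50.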

[8] = qHTS assay for small molecule agonists of the antioxidant response element (ARE) signaling pathway (AID 651741; active = well fitted activation curve with a large enough effect in the signal ratio; inconclusive = small, poorly fitted or top-dose-only effect, or effect the other way, or a change in a side signal; the % refers to the signal ratio; note: % of control where 0% means no effect); conditions: HepG2 ARE-bla reporter, beta-lactamase FRET ratio, 16 h; activation: at 96 µM (top of the series)
How it was run: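 Compounds in DMSO are pinned onto HepG2 ARE-bla cells (2,000/well) that were preincubated 5 h; plates stay 16 h at 37 C, then beta-lactamase activity is detected with LiveBLAzer B/G substrate by fluorescence.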

[9] = qHTS assay for small molecule activators of the nuclear factor-kappa B (NF-kB) signaling pathway (AID 651749; active = well fitted activation curve with a large enough effect in the signal ratio; inconclusive = small, poorly fitted or top-dose-only effect, or a change in a side signal; the % refers to the signal ratio; note: % of control where 0% means no effect); conditions: NF-kB-bla ME-180 cells, beta-lactamase FRET ratio, 16 h; activation: stronger effect = higher value
How it was run: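 Screening used 2,000 ME-180 reporter cells per well exposed to pinned compound (23 nL) or DMSO; after 16 hr at 37C, beta-lactamase expression under NF-kB control was assessed through FRET.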

[10] = target: Peroxisome proliferator-activated receptor alpha (Homo sapiens) (UniProt Q07869); assay: qHTS assay for small molecule agonists of the peroxisome proliferator-activated receptor alpha (PPARalpha) signaling pathway (AID 651778); conditions: PathHunter PPARalpha complementation, chemiluminescence, 6 h; note: potency is the fitted concentration of half-maximal effect
Chain of UniProt Q07869 (Q07869 whole entry, looked up): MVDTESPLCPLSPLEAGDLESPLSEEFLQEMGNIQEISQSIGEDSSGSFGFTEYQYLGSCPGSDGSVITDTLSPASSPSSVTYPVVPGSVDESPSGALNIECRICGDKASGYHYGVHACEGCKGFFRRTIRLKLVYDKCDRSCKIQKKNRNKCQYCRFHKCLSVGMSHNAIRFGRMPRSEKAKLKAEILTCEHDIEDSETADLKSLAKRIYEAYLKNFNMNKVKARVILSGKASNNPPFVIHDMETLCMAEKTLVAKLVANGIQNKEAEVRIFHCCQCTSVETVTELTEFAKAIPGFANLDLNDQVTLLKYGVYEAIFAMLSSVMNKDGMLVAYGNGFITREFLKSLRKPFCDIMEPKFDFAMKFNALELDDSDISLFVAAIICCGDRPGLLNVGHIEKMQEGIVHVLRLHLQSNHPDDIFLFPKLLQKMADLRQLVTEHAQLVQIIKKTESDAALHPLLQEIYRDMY
How it was run: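 Cells plated at 2,000/well and held overnight at 37 C, 5% CO2, then compound added by pin tool for 6 hr; after PathHunter detection reagent and 60 min at room temperature, chemiluminescence from enzyme complementation was read.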

[11] = qHTS for Inhibitors of Plasmodium falciparum (CP250) proliferation (AID 504320);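 note: plate controls were DMSO vehicle for no effect and 0.29 µM artemisinin control for full effect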
How it was run: (§1)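 Erythrocytes infected with P. falciparum line (0.3% parasitemia, 2.5% hematocrit final) incubated with compounds 72 h at 37 °C, 5% CO2; SYBR Green lysis buffer added, fluorescence read next day. Normalized to 0.29 uM artemisinin and DMSO.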

[12] = qHTS for Inhibitors of Plasmodium falciparum (GB4) proliferation (AID 504315);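 note: 0% = DMSO vehicle and -100% = 0.29 µM artemisinin control; nearly all actives have a fitted effect of over 50% in size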; conditions: P. falciparum GB4 in erythrocytes, SYBR Green DNA, 72 h; activity change, negative = inhibition: at 6.7 µM (top of the series)
How it was run: as §1

[13] = qHTS for Inhibitors of Plasmodium falciparum (7G8) proliferation (AID 504316); note: potency is the fitted concentration of half-maximal effect; nearly all actives have a fitted effect of over 65% in size; conditions: P. falciparum 7G8 in erythrocytes, SYBR Green DNA, 72 h; activity change, negative = inhibition: at 6.7 µM (top of the series)
How it was run: as §1

[14] = qHTS for Inhibitors of Plasmodium falciparum (HB3) proliferation (AID 504318);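 note: 0% = DMSO vehicle and -100% = artemisinin control; nearly all actives have a fitted effect of over 60% in size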; conditions: P. falciparum HB3 in erythrocytes, SYBR Green DNA, 72 h; activity change, negative = inhibition: at 7.21 µM (top of the series)
How it was run: as §1
Tags give direction and shape of the fitted curve or compound fluorescence and quenching.

CCCCCCCC/C=C\CCCCCCCC(=O)OC[C@@H](O)[C@H]1OC[C@H](O)[C@H]1O
activity, negative = inhibition [1]: inconclusive: 0.149%
Potency [2]: active: 2 µM
Potency [3]: inconclusive [side channel, falling, single point]
Potency [4]: inactive
activity, negative = inhibition [5]: inconclusive: 12.9%
Potency [6]: inactive
activity change % (negative = inhibition) [7]: inconclusive: -13.7%
Potency [8]: inactive
activation [9]: inactive: 0.379%
Potency [10]: active: 39.8 µM

CCCCC1=CC2=C(c3ccco3)C(=O)C(C)(OC(=O)c3ccc(OC)cc3)C(=O)C2=CN1CCCCO (centres undefined)
Potency [11]: inactive

C[C@@H]1C[C@](C)(C(=O)c2ccc3ccccc3c2)C=C1c1ccc2ccccc2c1
Potency [12]: inactive
Potency [13]: inconclusive [inhibitor, single point]
Potency [14]: inactive

From PubChem BioAssay (NCATS)
